Measurements reported in PubChem BioAssay AID624296 (National Center for Advancing Translational Sciences (NCATS), 2012).
Out of some 350,000 compounds screened, about 9,900 (2.8%) were called active. The shares of active, inactive and inconclusive entries below differ from those in the screen. Calls follow the shape of the dose curve; as a rule, active = well fitted activation curve with a large enough effect; inconclusive = small, poorly fitted or top-dose-only effect; inactive = no such curve, though single readings can be large or run the other way. Potencies of inconclusive entries are left out as doubtful fits.

Assay: A quantitative high throughput screen for small molecules that induce DNA re-replication in MCF 10a normal breast cells. Also: nearly all actives have a fitted effect of over 50% in size. As to activity, positive = re-replication: % of control where 0% means no effect.
Details: MCF 10A DNA re-replication, Hoechst nuclear intensity, 48 h; activity, positive = re-replication: at 46.1 µM (top of the series)
Potency is read from the fitted curve at half-maximal effect; tags tell the direction and shape of the fitted curve.

| SMILES | Potency | activity, positive = re-replication |
| --- | --- | --- |
| O=C(CN1CCCCC1)Nc1ccccc1Cl | inconclusive [activator, partial curve, poor fit] | – |
| CCN(C(=O)COc1ccc(N(C)S(=O)(=O)c2ccc(NC(C)=O)cc2)cc1)C1CCCCC1 | inconclusive [activator, partial curve, poor fit] | – |
| O=C(NCCN1C(=O)S/C(=C\c2ccccc2F)C1=O)C1CCCN1C(=O)c1cccs1 (stereo not drawn) | inconclusive [activator, single point] | – |
| O=C(CNC(=O)c1ccccc1Br)N/N=C/c1cc(Br)ccc1O | inconclusive [activator, single point] | – |
| NC(=S)Cc1nc(-c2ccc(Cl)cc2)cs1 | inconclusive [activator, single point] | – |
| C[C@H](CO)N1C[C@H](C)[C@@H](CN(C)C(=O)Nc2ccc(C(F)(F)F)cc2)Oc2ccc(NC(=O)Nc3ccc4c(c3)OCO4)cc2C1=O | inconclusive [activator, single point] | – |
| CC1(C)[C@H]2CC=C(CN3CCC(N4CCC(C(=O)N5CCCC5)CC4)CC3)[C@@H]1C2 | inconclusive [activator, single point] | – |
| COC(=O)c1ccc(N2CCN(C)CC2)c(NC(=O)COc2ccc(OC)cc2)c1 | inactive | – |
| O=C(Nc1ccc(NC(=O)c2ccco2)c(Cl)c1)c1cccc([N+](=O)[O-])c1 | inconclusive [activator, single point] | – |
| O=C(COC(=O)c1c2c(nc3ccccc13)/C(=C/c1cccc([N+](=O)[O-])c1)CCC2)NC1CCS(=O)(=O)C1 (stereo not drawn) | inconclusive [activator, full curve] | – |
| CC[C@]12c3[nH]c4cc(-c5ccco5)ccc4c3CCN1C(=O)[C@@H](CC(=O)NCC13CC4CC(CC(C4)C1)C3)C[C@@H]2C(=O)N1CCN(C(=O)C2CC2)CC1 | inconclusive [activator, partial curve, poor fit] | – |
| O=C(Nc1cccc(-c2nc3ncccc3o2)c1)c1sc2cc(Cl)ccc2c1Cl | inactive | – |
| COc1ccc(C=O)cc1OS(=O)(=O)c1ccc(NC(C)=O)cc1 | inconclusive [activator, single point] | – |
| Cc1sc(NC(=O)/C=C/c2ccc3c(c2)OCO3)nc1-c1ccccc1 | inconclusive [activator, partial curve, poor fit] | – |
| N#Cc1cccc(C#N)c1Oc1ccc(S(=O)(=O)Nc2ccc(Cl)cc2)cc1 | inconclusive [activator, single point] | – |
| N#C/C(=C\c1ccc(O)cc1)c1nc2ccccc2o1 | inconclusive [activator, single point] | – |
| Clc1cccc(Cl)c1/C=C/c1ccn[nH]1 | inconclusive [activator, partial curve, poor fit] | – |
| CCCCCOc1ccc(C(=O)CCC(=O)NC(C)c2ccc(S(N)(=O)=O)cc2)cc1 (stereo not drawn) | inconclusive [activator, partial curve] | – |
| CC(=O)NCCn1c(SCc2ccc(C)cc2C)nc2ccccc2c1=O | inactive | – |
| Cc1cc(C(=O)N(C)CC(=O)Nc2ccccc2C(F)(F)F)c(C)o1 | inconclusive [activator, single point] | – |
| O=C(CSC1=Nc2ccccc2C2CC=NN12)Nc1ccc(F)cc1Cl (stereo not drawn) | inconclusive [activator, single point] | – |

| SMILES | Potency | activity, positive = re-replication |
| --- | --- | --- |
| COCCCNC(=S)N1CCN(C(=O)C(=O)Nc2ccc(C(=O)OC)cc2)CC1 | inconclusive [activator, full curve, poor fit] | – |
| CC(=O)CCS(=O)(=O)c1ccc(NC(C)=O)cc1 | inconclusive [activator, single point] | – |
| O=S(Cc1ccc(Br)cc1)Cc1nnc(SCc2c(Cl)cccc2Cl)n1-c1ccccc1 (stereo not drawn) | inconclusive [activator, single point] | – |
| Cc1ccc(S(=O)(=O)NCC(=O)NCC(=O)OCC(=O)N2CC(=O)Nc3ccccc32)cc1C | inactive | – |
| OCCNc1nc(-c2ccccc2)c2ccccc2n1 | inconclusive [activator, partial curve, poor fit] | – |
| CCc1ccc(OCC(O)CN2CCN(CCO)CC2)cc1 (stereo not drawn) | inconclusive [activator, single point] | – |
| Cc1ccc(C(=O)NCC(=O)N2CCC3(CC2)NCCc2[nH]cnc23)cc1C | inconclusive [activator, partial curve, poor fit] | – |
| Cc1ccc(S(=O)(=O)N(CC(=O)N/N=C/c2ccco2)c2cc(Cl)cc(Cl)c2)cc1 | inconclusive [activator, single point] | – |
| O=C(COC(=O)CNS(=O)(=O)c1c(F)cccc1F)NC(=O)NC1CCCCC1 | inactive | – |
| C[C@H](CO)N1C[C@H](C)[C@@H](CN(C)Cc2ccccc2)Oc2ccc(NC(=O)Cn3cnnn3)cc2C1=O | inactive | – |
| COC(=O)[C@H](Cc1ccccc1)NC(=O)N1CCN(c2ccccc2)CC1 | inactive | – |
| CSc1ccccc1NC(=O)Nc1cccc(Cl)c1Cl | active: 23.1 µM | – |
| CCOc1ccc(-c2nnc(-c3ccncc3)o2)cc1 | inactive | – |
| Cc1ccc(-c2nnn(CC(=O)N(Cc3cccs3)C(C(=O)NC3CCCC3)c3ccncc3)n2)cc1 (stereo not drawn) | inconclusive [activator, single point] | – |
| CCOc1ccc(-c2cc(C(=O)NCCCN3CCCC3)c3ccccc3n2)cc1 | inconclusive [activator, partial curve, poor fit] | – |
| CNC1CCc2cc(OC)c(OC)c(OC)c2-c2ccc(SC)c(=O)cc21 (stereo not drawn) | – | inconclusive: 77.8% [activator] |
| N=C1/C(=C\c2ccc(SCc3ccco3)o2)C(=O)N=C2SC=NN12 | inconclusive [activator, partial curve, poor fit] | – |
| N=c1n(CCN2CCOCC2)c2ccccc2n1CC(=O)c1ccc(Cl)c(Cl)c1 | inconclusive [activator, single point] | – |
| Cc1cc(C)cc(NC(=O)CSc2cc(C(=O)c3nccn3C)c3ccccc3n2)c1 | inconclusive [activator, single point] | – |
| O=C(Oc1ccc(Cl)c2cccnc12)C12CC3CC(CC(C3)C1)C2 | active: 18.4 µM | – |
| O/N=C\c1ccc(-c2ccccc2)o1 | inactive | – |

| SMILES | Potency | activity, positive = re-replication |
| --- | --- | --- |
| COC(=O)[C@@]12CCCN1[C@H](c1ccc(-c3ccc4c(c3)OCO4)c(OC)c1)[C@H]1C(=O)N(C)C(=O)[C@H]12 | inconclusive [activator, full curve, poor fit] | – |
| O=C1N[C@@H](c2ccccc2)COC(=O)[C@@H](Cc2ccc(F)cc2)CC/C=C/C[C@H]1CC(=O)N(CCO)Cc1ccccc1 | inconclusive [activator, single point] | – |
| O=C(N/C(=C/c1cccnc1)C(=O)N1CCCCCC1)c1ccccc1 | inconclusive [activator, single point] | – |
| CC(C)(C)OC(=O)[C@H](Cc1ccccc1)NC(=O)c1[nH]cnc1C(=O)Nc1cccc(Cl)c1 | active: 14.6 µM | – |
| COc1ccccc1Cn1c(=S)[nH]c2cc(C(=O)N3CCCC3)ccc2c1=O | inactive | – |
| Clc1ccc(-c2nnc(NCc3ccccc3)c3ccccc23)cc1 | inconclusive [activator, single point] | – |
| CCn1nccc1C(=O)Nc1nc2ccccc2n1CCN1CCCCC1 | inconclusive [activator, full curve, poor fit] | – |
| CCOC(=O)Nc1ccc2c(c1)N(C(=O)CNC)c1ccccc1CC2 | inconclusive [activator, single point] | – |
| S=C(Nc1ccccc1)N1CCCCC1 | inactive | – |
| CC(C)(C)CC(=O)Nc1ccc(S(=O)(=O)NC2=NCCCCC2)cc1 | inactive | – |
| CN(C(=S)NC1=CCS(=O)(=O)C1)C1CCCCC1 | inconclusive [activator, partial curve, poor fit] | – |
| COc1ccc(NC(=O)[C@H](Cc2c[nH]c3ccccc23)NC(=O)[C@@H]2Cc3ccccc3CN2)cc1 | active: 14.6 µM | – |
| CC(C)(C)c1ccc(OCCCC(=O)Nc2cccc(S(=O)(=O)N3CCOCC3)c2)cc1 | inconclusive [activator, single point] | – |
| O=C1CCCN1CCCN=c1c([N+](=O)[O-])nn(-c2ccc(Cl)cc2)n1O | inconclusive [activator, single point] | – |
| COC(=O)[C@@]12CCCN1[C@H](c1ccc(-c3ccc(Cl)c(Cl)c3)cc1)[C@H]1C(=O)N(C)C(=O)[C@H]12 | inconclusive [activator, single point] | – |
| COc1ccc2c(c1OC)C(=O)N1c3ccccc3SC21 (stereo not drawn) | inconclusive [activator, partial curve, poor fit] | – |
| Cc1ccc(S(=O)(=O)Nc2ccc(O)c3ccccc23)c(C)c1 | active: 20.6 µM | – |
| O=C(CCC(=O)c1ccc(Oc2ccccc2)cc1)Nc1ccc(Cl)cc1Cl | inconclusive [activator, single point] | – |
| CCCCOc1ccc(/C(O)=C2/C(=O)C(=O)N(CCN(C)C)C2c2ccc(O)c(OC)c2)cc1 (stereo not drawn) | inconclusive [activator, full curve, poor fit] | – |
| CC(C)(C)C(=O)Nc1ccc(-c2cn3ccsc3n2)cc1 | inactive | – |
| CCN1CSC(=S)N(Cc2ccc(OC)cc2)C1 | inconclusive [activator, single point] | – |
